# Results reported in a collection of fitness landscapes (doi:10.1126/science.1257360).
# The other results are listed elsewhere or left out.
# B1: PhoQ; a variant is named by its letters at X, in order, P23837 (parent)
# chain: MKKLLRLFFPLSLRVRFLLATAAVVLVLSLAYGMVALIGYSVSFDKTTFRLLRGESNLFYTLAKWENNKLHVELPENIDKQSPTMTLIYDENGQLLWAQRDVPWLMKMIQPDWLKSNGFHEIEADVNDTSLLLSGDHSIQQQLQEVREDDDDAEMTHSVAVNVYPATSRMPKLTIVVVDTIPVELKSSYMVWSWFIYVLSANLLLVIPLLWVAAWWSLRPIEALAKEVRELEEHNRELLNPATTRELTSLVRNLNRLLKSERERYDKYRTTLTDLTHSLKTPLXXLQXXLRSLRSEKMSVSDAEPVMLEQISRISQQIGYYLHRASMRGGTLLSRELHPVAPLLDNLTSALNKVYQRKGVNISLDISPEISFVGEQNDFVEVMGNVLDNACKYCLEFVEISARQTDEHLYIVVEDDGPGIPLSKREVIFDRGQRVDTLRPGQGVGLAVAREITEQYEGKIVAGESMLGGARMEVIFGRQHSAPKDE
# Variants of: B1
# Test: enrichment ratio after two sorts for PhoP signalling (ratio (wild type AVST 3.29)); higher = more functional
# Conditions: with PhoP (E. coli)
row,Variant,enrichment ratio
1,HPHP,≤ 0.25
2,RMYD,≤ 0.25
3,NAFR,≤ 0.25
4,FEQR,≤ 0.25
5,PSNV,≤ 0.25
6,VRNS,≤ 0.25
7,SGED,≤ 0.25
8,YIVL,≤ 0.25
9,NNPL,≤ 0.25
10,IRES,≤ 0.25
11,CFCR,≤ 0.25
12,VLIV,≤ 0.25
13,DLVM,≤ 0.25
14,FVVV,≤ 0.25
15,IDWI,≤ 0.25
16,DVEH,≤ 0.25
17,MCIL,≤ 0.25
18,DGGQ,≤ 0.25
19,EVCH,≤ 0.25
20,TWVA,≤ 0.25
21,PILN,≤ 0.25
22,FHNV,≤ 0.25
23,RCCW,≤ 0.25
24,LLDV,≤ 0.25

row,Variant,enrichment ratio
1,YRRD,≤ 0.25
2,PYHG,≤ 0.25
3,NKWK,≤ 0.25
4,IYCA,≤ 0.25
5,PQIN,≤ 0.25
6,KKIN,≤ 0.25
7,STTI,5.62
8,PKKY,≤ 0.25
9,PLLM,≤ 0.25
10,MTWN,≤ 0.25
11,WQIE,≤ 0.25
12,SCWM,≤ 0.25
13,LCMF,≤ 0.25
14,KDAG,≤ 0.25
15,PAMV,≤ 0.25
16,NTPR,≤ 0.25
17,PHFC,≤ 0.25
18,DWKA,≤ 0.25
19,KHNQ,≤ 0.25
20,SSCS,9.51
21,EDDV,≤ 0.25
22,QSML,3.2
23,QLYW,≤ 0.25
24,WLSQ,≤ 0.25

row,Variant,enrichment ratio
1,IIPF,≤ 0.25
2,IQNT,≤ 0.25
3,FLSP,≤ 0.25
4,IIIT,≤ 0.25
5,MWGV,≤ 0.25
6,KPIP,≤ 0.25
7,WALN,≤ 0.25
8,MWFC,1.61
9,DCNR,≤ 0.25
10,QSSE,1.95
11,FAML,6.33
12,SMFD,≤ 0.25
13,AKVC,15.3
14,DEVI,≤ 0.25
15,EMQQ,≤ 0.25
16,YIVI,≤ 0.25
17,LYWL,0.729
18,NDHE,≤ 0.25
19,FMRG,0.252
20,VPTW,≤ 0.25
21,NMMI,≤ 0.25
22,FMTN,≤ 0.25
23,HMIF,≤ 0.25
24,PFLL,≤ 0.25

row,Variant,enrichment ratio
1,LLWH,≤ 0.25
2,RQLM,≤ 0.25
3,VRVW,≤ 0.25
4,VHDE,≤ 0.25
5,AQGV,≤ 0.25
6,MTIP,≤ 0.25
7,DFSM,≤ 0.25
8,NVDT,≤ 0.25
9,FETG,≤ 0.25
10,HYLA,≤ 0.25
11,MYVV,≤ 0.25
12,PAKM,≤ 0.25
13,TNYF,≤ 0.25
14,ALDF,≤ 0.25
15,WKIN,≤ 0.25
16,HEFV,≤ 0.25
17,NHVV,≤ 0.25
18,PCGN,≤ 0.25
19,LPFD,≤ 0.25
20,LNEG,≤ 0.25
21,FAFL,0.458
22,FACQ,≤ 0.25
23,RPVQ,≤ 0.25
24,IMFQ,≤ 0.25

row,Variant,enrichment ratio
1,LMDT,≤ 0.25
2,GWKR,≤ 0.25
3,GVRA,≤ 0.25
4,SQQR,≤ 0.25
5,FPHK,≤ 0.25
6,EYFD,≤ 0.25
7,FTIY,≤ 0.25
8,WDAN,≤ 0.25
9,AYIH,≤ 0.25
10,GGLD,≤ 0.25
11,TPWG,≤ 0.25
12,FKPF,≤ 0.25
13,GHLE,≤ 0.25
14,KTYV,≤ 0.25
15,PARG,≤ 0.25
16,NCSN,≤ 0.25
17,LPKV,≤ 0.25
18,WREP,≤ 0.25
19,LYTV,≤ 0.25
20,KYKL,≤ 0.25
21,IQTM,≤ 0.25
22,SIGL,5.15
23,IKTP,≤ 0.25
24,IHQR,≤ 0.25

row,Variant,enrichment ratio
1,YSAW,≤ 0.25
2,RKMC,≤ 0.25
3,GMSR,≤ 0.25
4,WWCR,≤ 0.25
5,ETFN,≤ 0.25
6,MIPL,≤ 0.25
7,IAKV,≤ 0.25
8,RWWT,≤ 0.25
9,LRCG,≤ 0.25
10,CIPI,≤ 0.25
11,AILD,≤ 0.25
12,KDQE,≤ 0.25
13,NNDY,≤ 0.25
14,VQTM,≤ 0.25
15,LFAE,≤ 0.25
16,LLYK,≤ 0.25
17,SRLM,8.53
18,SLPE,≤ 0.25
19,NYHA,≤ 0.25
20,HIAF,≤ 0.25
21,PVQC,≤ 0.25
22,WGPD,≤ 0.25
23,FAII,≤ 0.25
24,GCFP,≤ 0.25

row,Variant,enrichment ratio
1,AYTH,≤ 0.25
2,AHYW,≤ 0.25
3,IGNW,≤ 0.25
4,YCHG,≤ 0.25
5,GLSY,≤ 0.25
6,DKSN,≤ 0.25
7,YEIS,0.338
8,TGSV,17.2
9,GHGL,≤ 0.25
10,HWPD,≤ 0.25
11,KEAL,≤ 0.25
12,FLHQ,≤ 0.25
13,MANP,≤ 0.25
14,HKDT,≤ 0.25
15,NPCD,≤ 0.25
16,HDLN,≤ 0.25
17,DFRD,≤ 0.25
18,KHIQ,≤ 0.25
19,MNQW,≤ 0.25
20,LVCD,≤ 0.25
21,LISG,≤ 0.25
22,HCLG,≤ 0.25
23,YWGD,≤ 0.25
24,YYTT,≤ 0.25

row,Variant,enrichment ratio
1,HPNL,≤ 0.25
2,GMRK,≤ 0.25
3,IGQI,≤ 0.25
4,SCSD,≤ 0.25
5,EAIP,≤ 0.25
6,IVIY,≤ 0.25
7,MENT,≤ 0.25
8,EEPS,≤ 0.25
9,NTCT,≤ 0.25
10,INEG,≤ 0.25
11,HTPS,≤ 0.25
12,NQEI,≤ 0.25
13,ETLY,≤ 0.25
14,GAHH,≤ 0.25
15,NAYH,≤ 0.25
16,HVKG,≤ 0.25
17,AYHM,≤ 0.25
18,WPHV,≤ 0.25
19,DMTC,≤ 0.25
20,KFWR,1.07
21,QLPD,≤ 0.25
22,SGSI,15.9
23,IDCE,≤ 0.25
24,LRLC,≤ 0.25

row,Variant,enrichment ratio
1,ACCD,≤ 0.25
2,ELVT,≤ 0.25
3,RQHG,≤ 0.25
4,DPKD,≤ 0.25
5,QCCM,≤ 0.25
6,PKQA,≤ 0.25
7,GRDN,≤ 0.25
8,DKHE,≤ 0.25
9,ISWI,≤ 0.25
10,NHNY,≤ 0.25
11,RFFK,≤ 0.25
12,QIIC,≤ 0.25
13,YDIS,1.07
14,KNSL,≤ 0.25
15,QYSA,≤ 0.25
16,WDNT,≤ 0.25
17,ILHT,≤ 0.25
18,AWCR,≤ 0.25
19,ADWI,≤ 0.25
20,YIIK,≤ 0.25
21,WYSR,≤ 0.25
22,TRIT,≤ 0.25
23,RRKP,≤ 0.25
24,HYAH,≤ 0.25

row,Variant,enrichment ratio
1,VGPK,≤ 0.25
2,AGFQ,≤ 0.25
3,QENM,≤ 0.25
4,EAEL,≤ 0.25
5,QCTI,≤ 0.25
6,AIYM,≤ 0.25
7,GYES,≤ 0.25
8,PRNQ,≤ 0.25
9,AICY,10.5
10,ECHP,≤ 0.25
11,KDCN,≤ 0.25
12,EVGH,≤ 0.25
13,IDQP,≤ 0.25
14,NLVL,≤ 0.25
15,QFTC,≤ 0.25
16,RDPL,≤ 0.25
17,ENSK,≤ 0.25
18,INAH,≤ 0.25
19,ERNH,≤ 0.25
20,LLAC,≤ 0.25
21,YDTC,≤ 0.25
22,MHAL,≤ 0.25
23,PGID,≤ 0.25
24,GHDW,≤ 0.25

row,Variant,enrichment ratio
1,GKGF,≤ 0.25
2,MVFE,≤ 0.25
3,AFIW,≤ 0.25
4,YYTK,≤ 0.25
5,VILY,≤ 0.25
6,EEIA,≤ 0.25
7,YSLS,7.49
8,ACGG,4.87
9,LNTD,≤ 0.25
10,DWMF,≤ 0.25
11,PPNY,≤ 0.25
12,TSIF,0.479
13,PTHY,≤ 0.25
14,ERIN,≤ 0.25
15,RDEP,≤ 0.25
16,FFFR,≤ 0.25
17,FMIA,≤ 0.25
18,FMTA,≤ 0.25
19,HQFP,≤ 0.25
20,QDNS,≤ 0.25
21,WIHY,≤ 0.25
22,KLQW,≤ 0.25
23,IVRH,≤ 0.25
24,TKVQ,11.7

row,Variant,enrichment ratio
1,YAWR,≤ 0.25
2,ARSK,≤ 0.25
3,QFQK,≤ 0.25
4,RWFA,≤ 0.25
5,EETF,≤ 0.25
6,SCNN,0.322
7,VRKS,≤ 0.25
8,GGQL,≤ 0.25
9,RSLG,≤ 0.25
10,SGDF,≤ 0.25
11,QTCM,≤ 0.25
12,GPRH,≤ 0.25
13,DIFS,≤ 0.25
14,WGFG,≤ 0.25
15,SPGQ,≤ 0.25
16,WSTL,≤ 0.25
17,NFRG,≤ 0.25
18,SSKV,≤ 0.25
19,QTLS,0.448
20,YNQW,≤ 0.25
21,ERHL,≤ 0.25
22,PLVN,≤ 0.25
23,WKKF,≤ 0.25
24,PTSD,3.64

row,Variant,enrichment ratio
1,MAPW,≤ 0.25
2,LIWP,≤ 0.25
3,VASE,≤ 0.25
4,NWKW,≤ 0.25
5,SSTQ,9.81
6,HYKC,≤ 0.25
7,QQTI,≤ 0.25
8,CVIT,≤ 0.25
9,REAP,≤ 0.25
10,ELWI,≤ 0.25
11,SWAM,≤ 0.25
12,RLTK,≤ 0.25
13,RMDC,≤ 0.25
14,AKWW,≤ 0.25
15,MGLD,≤ 0.25
16,LMKN,≤ 0.25
17,HPYQ,≤ 0.25
18,STVC,1.73
